What was measured:
[1] = biological target: T1, human PD-1-His antigen (human, UniProt Q15116 part only, limits assumed); experiment: SPR (Biacore T200), HCAb captured through Fc, human PD-1-His as analyte
T1 construct: also called Antigen PD-1-His protein; not shown: His tag

[2] = biological target: T2, human PD-1 expressed on cells (human, UniProt Q15116 25-288); experiment: flow cytometry (FACS) on CHO cells expressing PD-1
T2 construct: also called PD-1 expressed on CHO cells; CHO cells expressing human PD-1

[3] = biological target: T1, human PD-1-His antigen; experiment: SPR (Biacore T200), HCAb captured through Fc, PD-1-His as analyte
T1 sequence (Q15116 25-170 limits assumed): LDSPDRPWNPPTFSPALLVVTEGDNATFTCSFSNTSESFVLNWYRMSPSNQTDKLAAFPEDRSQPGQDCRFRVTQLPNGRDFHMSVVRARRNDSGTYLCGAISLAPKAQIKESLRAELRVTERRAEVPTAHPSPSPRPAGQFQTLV

binding result [1]	binding result [2]	binding result [3]	Binder
binds			AS15881_HCAb (Fc fusion, sdAb fused to human IgG4 Fc (S228P) through the hIgG4 hinge; made in CHO cells) heavy: QVQLVESGGGSVQAGGSLRLSCAASGFTDSSYCGAWFRQVPGKEREGVAIIDRYGGTMYKDSVKGRFTISKDTAKNILYLQMNSLKLEDTAMYYCAAAEYRGSSCDAESGYWGQGTQVTVSS[human IgG4 Fc with S228P (EU numbers) skipped]
binds			AS15883_HCAb (Fc fusion, sdAb fused to human IgG4 Fc (S228P) through the hIgG4 hinge; made in CHO cells) heavy: QVHLMESGGGSVQAGGSLTLSCAASVFTDSNYCMAWFRQVPGKEREGVAIIDRYGGTMYKDSVKGRFTISKDTAKNILYLQMNSLKLEDTAMYYCAAAGYRGSSCDADSGYWGQGTQVTVSS[human IgG4 Fc with S228P (EU numbers) skipped]
binds			AS15892_HCAb (Fc fusion, sdAb fused to human IgG4 Fc (S228P) through the hIgG4 hinge; made in CHO cells) heavy: QIQLVESGGGSVQAGGSLRLSCAASGFTDSSYCGAWFRQVPGKEREGVAIIDRYGGTMYKDSVKGRFTISKDTAKNILYLQMNSLKLEDTAMYYCAAAEYRGSSCDAESGYWGQGTQVTVSS[human IgG4 Fc with S228P (EU numbers) skipped]
binds			AS15899_HCAb (Fc fusion, sdAb fused to human IgG4 Fc (S228P) through the hIgG4 hinge; made in CHO cells) heavy: QVQLVESGGGSVQAGGSLRLSCAASGYTAGSLCMGWFRQAPGKEREGVAAIYTGGGSTYYADSVKGRFTISQDNAKNTVYLQMNSLKPEDTAQYYCGAGSREDYCDRGYIYDHWGQGTQVTVSS[human IgG4 Fc with S228P (EU numbers) skipped]
binds			AS15152_HCAb (Fc fusion, sdAb fused to human IgG4 Fc (S228P) through the hIgG4 hinge; made in CHO cells) heavy: QMQLVESGGGSVQAGGSLRLSCAVSGYIYNRNFMGWFRQAPGKEREGVAAIYTGGPYTYYTDSVQGRFTISQDNTKNTVYLQMNSLKPEDTAMYYCVSDLSDGTWDQGRWNYWGQGTQVTVSS[human IgG4 Fc with S228P (EU numbers) skipped]
binds			AS15156_HCAb (Fc fusion, sdAb fused to human IgG4 Fc (S228P) through the hIgG4 hinge; made in CHO cells) heavy: QVQLVESGGGSAQAGGSLRLSCAVSGYIYNRNFMGWFRQVPGKVREGVAAIYTGTERTYYADSVKGRFTISQDNAKNTVYLQMNSLKPEDTAMYYCVADLRDGTWDTGVWNTWGQGTQVTVSS[human IgG4 Fc with S228P (EU numbers) skipped]
binds			AS25170_HCAb (Fc fusion, sdAb fused to human IgG4 Fc (S228P) through the hIgG4 hinge; made in CHO cells) heavy: QVKLVESGGGLVQSGGSLRLSCAVSGSGYSYSRGCFAWFQQRPGKEREGVAIINMDGHTMYSDLAQGRFIISQDKAKNTLYLQMNSLKPDDTAMYYCAYDRDQCYVLRDRLRLPDTFNDWGQGTQVTVSS[human IgG4 Fc with S228P (EU numbers) skipped]
	binds	binds	AS15193VH18_HCAb (Fc fusion, humanized sdAb fused to human IgG4 Fc (S228P) through the hIgG4 hinge; made in CHO cells) heavy: EVQLVESGGGLVQPGGSLRLSCAVSGNIYNRNFMGWFRQAPGKGREGVSAIYTGTSRTYYADSVKGRFTISRDNAKNTVYLQMNSLRPEDTAVYYCAADLRDGFWDTGVWNTWGQGTLVTVSS[human IgG4 Fc with S228P (EU numbers) skipped]
	binds	binds	AS15193VH8_HCAb (Fc fusion, humanized sdAb fused to human IgG4 Fc (S228P) through the hIgG4 hinge; made in CHO cells) heavy: EVQLVESGGGLVQPGGSLRLSCAVSGNIYNRNFMGWFRQAPGKGLEGVSAIYTGTSRTYYADSVKGRFTISRDNSKNTVYLQMNSLRAEDTAVYYCAADLRDGFWDTGVWNTWGQGTLVTVSS[human IgG4 Fc with S228P (EU numbers) skipped]
	binds	binds	AS15193VH18M1_HCAb (Fc fusion, humanized sdAb fused to human IgG4 Fc (S228P) through the hIgG4 hinge; made in CHO cells) heavy: EVQLVESGGGLVQPGGSLRLSCAVSGNIYNRNFMGWFRQAPGKGREGVSAIYTGTSRTYYADSVKGRFTISRDNAKNTVYLQMNSLRPEDTAVYYCAADLREGFWDTGVWNTWGQGTLVTVSS[human IgG4 Fc with S228P (EU numbers) skipped]
binds	binds		AS15193_HCAb (Fc fusion, sdAb fused to human IgG4 Fc (S228P) through the hIgG4 hinge; made in CHO cells; also called parent HCAb; parental HCAb) heavy: QIQLVESGGGSAQAGGSLRLSCVVSGNIYNRNFMGWFRQAPGKVREGVAAIYTGTSRTYYADSVKGRFTISQDNAKNTVYLQMNSLKPEDTAMYYCAADLRDGFWDTGVWNTWGQGTQVTVSS[human IgG4 Fc with S228P (EU numbers) skipped]
	binds	binds	AS15193VH8M1_HCAb (Fc fusion, humanized sdAb fused to human IgG4 Fc (S228P) through the hIgG4 hinge; made in CHO cells) heavy: EVQLVESGGGLVQPGGSLRLSCAVSGNIYNRNFMGWFRQAPGKGLEGVSAIYTGTSRTYYADSVKGRFTISRDNSKNTVYLQMNSLRAEDTAVYYCAADLREGFWDTGVWNTWGQGTLVTVSS[human IgG4 Fc with S228P (EU numbers) skipped]
binds			AS06962_HCAb (Fc fusion, sdAb fused to human IgG4 Fc (S228P) through the hIgG4 hinge; made in CHO cells) heavy: QVHLVDSGGGLVQPGGSLRLSCAASGSITSRNTMGWYRQVPGKQRELVALIATFVTHYADSVKGRFTISRDNARKMVFLEMNSLQPEDTGAYYCYVDVSPYWGRGTQVTVSS[human IgG4 Fc with S228P (EU numbers) skipped]
